In paper PMC5177899, “Angiotensin II increases glomerular permeability by β-arrestin mediated nephrin endocytosis” (Scientific Reports, 2016):

Biological target: T1, Ig.nephrin, membrane-bound fusion protein of the C-terminal cytoplasmic domain of nephrin (AA 1087-1241) (human, UniProt O60500 1087-1241)
T1 construct: pCDM8 cassette: CD5 leader, CH2-CH3 of human IgG1, CD7 transmembrane region, then the nephrin stretch; also called nephrin c-terminus; source: HEK293T, transiently transfected, in lysate; not shown: transmembrane region of CD7, N-terminal, kept
T1 sequence (looked up): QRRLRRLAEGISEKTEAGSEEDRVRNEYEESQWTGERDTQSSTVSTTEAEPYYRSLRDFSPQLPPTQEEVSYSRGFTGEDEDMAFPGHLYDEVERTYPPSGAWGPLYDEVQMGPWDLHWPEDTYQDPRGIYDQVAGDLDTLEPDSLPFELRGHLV
Test: co-IP; HEK293T transiently transfected (Ig.nephrin fusion, partner, AT1 receptor), with or without Ang II (1 μM, up to 60 min) and inhibitors (candesartan, PP2, PTX, Ly294002, U73122) or GNAQ siRNA; 1% Triton X-100 lysate, protein G sepharose 1 h at 4 °C; Western blot
Details: partners not purified

fold enhancement of β-arrestin2 co-precipitated with nephrin, 60 min Ang II against no Ang II: 3 fold
B1: FLAG-tagged β-arrestin2 (natural protein)
chain: not shown
notes: β-arrestin2; plasmid a gift from Dr. Robert Lefkowitz; The Lefkowitz FLAG-β-arrestin2 plasmid is, as far as I recall, the rat cDNA; also called F.β-arrestin2; source: HEK293T, transiently transfected, in lysate
